Measurements taken from the RNAGym collection of RNA variant scans (doi:10.7554/elife.90254).
The source gives no read counts; variants with many changes may rest on few reads.

B1: LINE1-full (parent)
chain: UACGUAGGUGGUUUUCCCCUGAUAGUGCUAAGGGGGCCUGGAAGUUUGGACUGGGCAGAGCUCAACACAGCGUGGCAAAGUGGCUGUGGCUAGACUGCCUCUCUGGAUUCCUCGUCACUCAGCAGGGCAUCUCUGAGAGAAAUGCC

Variants of: B1
Assay: self-cleavage, relative activity (ratio to wild type); higher = more cleavage; in vitro, sequencing; the parent is a self-cleaving ribozyme
U12G U15C A67G A77U C146U showed a self-cleavage of 0.87.
U13A U15A U39C A79G U96C gave a self-cleavage of 0.
In the case of U12C U45C G54C A65U, the self-cleavage is reported as 0.07.
U12G U47A U87A A124G showed a self-cleavage of 0.
In the case of U13A U14C U87C, the self-cleavage is reported as 0.38.
In the case of U13A A57U U112C, the self-cleavage is reported as 0.1.
For U12C U14C A67G, the self-cleavage was 0.42.
In the case of U12C G54A A69G U85G, the self-cleavage is reported as 0.16.
U13A U15A A22U U47C showed a self-cleavage of 0.46.
In the case of U13A U14C U23C U47G U87G, the self-cleavage is reported as 0.21.
Work on U12C U26C A43U U45C yielded a self-cleavage of 2.16.
With U12C U81A U109C A142C the self-cleavage was 0.38.
U12G A24G G54A A142G showed a self-cleavage of 0.87.
Work on U12G U85C U91C yielded a self-cleavage of 0.71.
U12C U102C C116U showed a self-cleavage of 2.03.
With U12C U62A C84G the self-cleavage was 0.12.
U12C U29C C120U A142G gave a self-cleavage of 0.68.
In the case of U13A A22U U85C, the self-cleavage is reported as 0.28.
U12C U115C A138U showed a self-cleavage of 2.04.
U12C U46C A67G showed a self-cleavage of 1.25.
Variant U12C U87G U143C has a self-cleavage of 0.15.
Work on U13A A42G U45C yielded a self-cleavage of 0.56.
In the case of U12C U87A U132C U143C, the self-cleavage is reported as 0.29.
In the case of U13A U87A U100C, the self-cleavage is reported as 0.21.
Variant U13A U20A U29C A42G C99U U108C has a self-cleavage of 0.64.
U13A U47C A50G C111U showed a self-cleavage of 0.89.
For U12C G25A G58A A77G A136G, the self-cleavage was 0.11.
Variant U12G A59G G75A has a self-cleavage of 0.11.
For U12C U73A A79U U85A, the self-cleavage was 0.11.
U12C U46A A79U C95U A140U showed a self-cleavage of 0.22.
U12C U15C U52C showed a self-cleavage of 1.62.
For U13A A22G A57C U132C U143C, the self-cleavage was 0.
In the case of U12C G33C A57G, the self-cleavage is reported as 1.11.
U12C U62G U73G C90U gave a self-cleavage of 0.09.
With U13A A30U A67G U73C the self-cleavage was 0.77.
With U12C U23A U73C A140G the self-cleavage was 0.45.
U12C G33U U45A A117U G137A gave a self-cleavage of 1.
For U12C U20C G54A A117U U143C, the self-cleavage was 1.22.
U13A U62C A141G gave a self-cleavage of 0.01.
U13A A94G A129G U130C showed a self-cleavage of 0.
In the case of U12C U62C A140U, the self-cleavage is reported as 0.07.
Variant U12C U20A A64C has a self-cleavage of 0.57.
Work on U12C U47C U130G yielded a self-cleavage of 1.84.
Variant U13A U46C A92U G97A A142G has a self-cleavage of 0.05.
Work on U12G A50G A59G A79U yielded a self-cleavage of 0.34.
With U13A A79G U108C the self-cleavage was 2.04.
Variant U12C U62C A138G has a self-cleavage of 0.
With U12C U100A U119G the self-cleavage was 1.25.
For U12G A43G A117U, the self-cleavage was 1.03.
Variant U12G A64U A94G has a self-cleavage of 0.45.
U12C U46C U62A gave a self-cleavage of 0.
Variant U12C U45C A138G has a self-cleavage of 1.19.
Variant U12C U39C A94G has a self-cleavage of 0.38.
Variant U12G U91C A121G has a self-cleavage of 1.11.
For U12G U47C G53A U112C, the self-cleavage was 1.78.
Variant U12G A57U U115C U119G A136G A142G has a self-cleavage of 1.15.
In the case of U12C U13C C19U G55C U85C A92G U96A, the self-cleavage is reported as 0.
In the case of U12G A22G A59U A64G A142G, the self-cleavage is reported as 1.34.
U12C U47A A67G A129U A142G showed a self-cleavage of 1.06.
U13A U29C C133A A138G gave a self-cleavage of 1.09.
Variant U13A A22U C51A U109C has a self-cleavage of 1.17.
Work on U13A U29C C51U C76U U100A A107G yielded a self-cleavage of 2.06.
U12C U13C G88A U112C U119A U130A A138U gave a self-cleavage of 0.08.
Variant U12C U14C C120A has a self-cleavage of 1.28.
For U12C U29C C131G, the self-cleavage was 1.79.
For U12C G49A A67G A94G, the self-cleavage was 0.22.
With U12C U52A A92U C120U G126U the self-cleavage was 1.06.
In the case of U12C G32A A138U, the self-cleavage is reported as 0.22.
Variant U12C U13C A42G A92U G125A has a self-cleavage of 1.39.
Work on U12C G74A U119C yielded a self-cleavage of 1.23.
Work on U13A A42G U100C yielded a self-cleavage of 1.69.
Work on U12C U62C A78U yielded a self-cleavage of 0.02.
Variant U12G A42G A141G has a self-cleavage of 0.66.
U12C U20C A50U U85A gave a self-cleavage of 0.2.
Variant U12C U20C U109G A121U has a self-cleavage of 0.34.
Variant U13A U73C A136G has a self-cleavage of 1.45.
U12C U14C U45C U73C gave a self-cleavage of 1.84.
For U12G A78U U119A, the self-cleavage was 1.96.
U12C U100C U104A gave a self-cleavage of 2.08.
Variant U12G A24G A67U U130C has a self-cleavage of 0.46.
U12C U29C A129U gave a self-cleavage of 1.64.
Work on U12G A69G A140G yielded a self-cleavage of 0.69.
U13A U20C A22G U100C U119C C131A showed a self-cleavage of 1.53.
Work on U12C U13C G33A yielded a self-cleavage of 1.23.
In the case of U12C U47A U96G, the self-cleavage is reported as 0.26.
Variant U12C U13C G35U A50U has a self-cleavage of 1.27.
In the case of U12G U85C U130A, the self-cleavage is reported as 0.09.
In the case of U12G G41A A57G, the self-cleavage is reported as 0.64.
For U12C U13C G54U, the self-cleavage was 1.15.
With U12G U108C U132C the self-cleavage was 1.56.
For U12C U20C U47C U119A, the self-cleavage was 1.04.
U12C G36A G54A U130C U134C gave a self-cleavage of 1.04.
U12G U14C U85G A121C U143A gave a self-cleavage of 0.
U12C G25A U87A gave a self-cleavage of 0.
U13A A22G A64U U112C U119A gave a self-cleavage of 0.27.
In the case of U12C U100C A142G, the self-cleavage is reported as 2.53.
In the case of U12C U39C A77U, the self-cleavage is reported as 0.66.
Work on U12C U46A U85C yielded a self-cleavage of 0.21.
Work on U12G A22G U29C yielded a self-cleavage of 1.7.
U12G A30G U100C gave a self-cleavage of 1.72.
U13C A22G A92G U134C gave a self-cleavage of 0.53.
In the case of U12C U23C U102C, the self-cleavage is reported as 0.
Variant U12G C28U U104A has a self-cleavage of 0.59.
In the case of U13A U46C U62C C71U A140G, the self-cleavage is reported as 0.04.
U12C U73C U96C showed a self-cleavage of 0.66.
For U12C G32C U47C U73C U119A A121U U143C, the self-cleavage was 1.53.
For U12C G25A A124G G126A, the self-cleavage was 0.88.
U12C U14C G48A U115C showed a self-cleavage of 1.02.
U13A U46A A107G A129U gave a self-cleavage of 1.04.
U12C U112C C128A gave a self-cleavage of 1.25.
With U12G A43U A107G the self-cleavage was 0.98.
U12G A50G C103A U112C U130C gave a self-cleavage of 1.31.
In the case of U12C G35A U45C U73C G75A U96C U115C, the self-cleavage is reported as 0.48.
For U13A A64U U96C U104A A142U, the self-cleavage was 0.05.
In the case of U12C U26A U115A A124U, the self-cleavage is reported as 1.15.
Variant U13A C16A A78G has a self-cleavage of 0.47.
With U12C U20C U26C A94G A141C A142U the self-cleavage was 0.
U12C U47A A67G U96A gave a self-cleavage of 0.19.
U12G A43G U134C A140G gave a self-cleavage of 0.95.
U12C U52A A64G U85C showed a self-cleavage of 0.87.
For U13A U45C G53A, the self-cleavage was 2.09.
With U12C U112C U119C the self-cleavage was 0.
Variant U12C G32A C146U has a self-cleavage of 0.72.
For U12C U14C G72A, the self-cleavage was 1.17.
U13A U81A G83A gave a self-cleavage of 1.21.
U12C U13A U26A G49U U115C U143C gave a self-cleavage of 0.74.
For U12C U47A C84U U115A C123G A124G, the self-cleavage was 0.07.
U12C U46A A136G gave a self-cleavage of 1.56.
With U12G U15C U85C the self-cleavage was 0.
With U12C U29A A59G C98U the self-cleavage was 0.2.
For U12C U39C U119C, the self-cleavage was 2.57.
In the case of U12C G83C A94G A142G, the self-cleavage is reported as 0.64.
U12C U29C A77U U132A showed a self-cleavage of 1.23.
Work on U12C U46A U87C yielded a self-cleavage of 0.16.
Work on U12G U87C U104A U132C yielded a self-cleavage of 0.19.
U12C U46C G105A A129G A140U showed a self-cleavage of 1.75.
Work on U12G A42G A94G yielded a self-cleavage of 0.
U12G A42U A79C U112A gave a self-cleavage of 0.89.
U12C U46C C66U A79G gave a self-cleavage of 0.06.
Work on U12C U47A U100C A136G yielded a self-cleavage of 1.86.
U13A G21A A64G C113A gave a self-cleavage of 0.09.
U12G A30G A121U gave a self-cleavage of 0.27.
U12C U62C U73A gave a self-cleavage of 0.02.
Work on U13A U102C A140G yielded a self-cleavage of 1.33.
For U13A C28U C103A, the self-cleavage was 0.93.
U13A A24G A50U A67U U130A A140G showed a self-cleavage of 0.04.
With U12G U13C G35U A43G the self-cleavage was 1.16.
Variant U13A U100C U104C has a self-cleavage of 0.81.
With U12C U81G U112A the self-cleavage was 1.
Variant U12G U87C A121G has a self-cleavage of 0.
Variant U12C U130C A140G has a self-cleavage of 1.45.
Work on U12C U104A U132C yielded a self-cleavage of 0.36.
Variant U13A A31U U62C has a self-cleavage of 0.03.
Work on U12C U20C A43U A50G A59C yielded a self-cleavage of 0.
Variant U12C U15A U47G A69U A107G has a self-cleavage of 0.
For U12G A22G G54A, the self-cleavage was 0.25.
With U12C U20C U46C the self-cleavage was 0.95.
U13A A65G U85C gave a self-cleavage of 0.09.
Work on U12C G49U U81C yielded a self-cleavage of 0.62.
In the case of U13A A24G U26A G80C U104C G105U, the self-cleavage is reported as 0.83.
In the case of U12C U26A C71A, the self-cleavage is reported as 0.07.
U12G U13A U119C U143C showed a self-cleavage of 0.88.
U12C U15C G21U U112C gave a self-cleavage of 0.61.
In the case of U12G A22G U47A A79G U100A A124U, the self-cleavage is reported as 0.56.
Variant U12C U23C G32A A64G has a self-cleavage of 0.6.
With U13A U14C U143C the self-cleavage was 0.95.
U12C U100A U132G gave a self-cleavage of 1.63.
